# PubChem BioAssay AID624417 (National Center for Advancing Translational Sciences (NCATS), 2012)
# About 6,400 (1.6%) of roughly 410,000 compounds were called active. The inconclusive results got no clear call from the source; some entries with a clear call stand among them for comparison. Calls come from the whole dose curve; as a rule, active = well fitted inhibition curve with a large enough effect; inconclusive = small, poorly fitted or top-dose-only effect; inactive = no such curve, though single readings can be large or run the other way. Potencies of inconclusive entries are left out as doubtful fits.
# Target: Glucagon-like peptide 1 receptor (Homo sapiens) (UniProt P43220)
# Test: qHTS of GLP-1 Receptor Inverse Agonists (Inhibition Mode); note: nearly all actives have a fitted effect of over 55% in size
# Details: HEK293 GLP-1R CRE-luciferase, luminescence, 24 h, GLP-1R form is constitutively active; series mostly up to 38.3 µM
# Method in brief: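 Cells are plated, allowed 12 hours at 37 deg C, then treated with compounds for 24 hr before luciferase detection reagent is added and luminescence is read after 12 min at room temperature. The HEK293 line carries constitutively active GLP-1R with a cAMP-responsive reporter.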
# Potency is the fitted concentration of half-maximal effect; tags give direction and shape of the fitted curve.
# UniProt P43220, sequence (P43220 whole entry, looked up): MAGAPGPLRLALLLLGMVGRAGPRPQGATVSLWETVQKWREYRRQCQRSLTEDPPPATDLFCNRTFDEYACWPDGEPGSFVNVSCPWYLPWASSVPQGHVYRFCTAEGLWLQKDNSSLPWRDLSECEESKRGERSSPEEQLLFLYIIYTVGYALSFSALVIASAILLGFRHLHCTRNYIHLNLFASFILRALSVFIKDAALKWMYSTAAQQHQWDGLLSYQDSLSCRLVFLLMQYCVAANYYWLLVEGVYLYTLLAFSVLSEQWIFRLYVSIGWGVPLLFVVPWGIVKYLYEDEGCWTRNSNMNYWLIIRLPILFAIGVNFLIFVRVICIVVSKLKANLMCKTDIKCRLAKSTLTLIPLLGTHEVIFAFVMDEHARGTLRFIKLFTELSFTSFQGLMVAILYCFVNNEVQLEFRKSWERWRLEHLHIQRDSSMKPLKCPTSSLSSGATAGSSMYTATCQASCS
row,SMILES,Potency
1,CCOc1cc(C)c(C(C)C)cc1S(=O)(=O)n1cnc(C)c1,"inconclusive [inhibitor, partial curve, poor fit]"
2,CCCCn1nc2cc(C(=O)NC3CCc4ccccc43)ccc2c1OCC (stereo not given),"inconclusive [inhibitor, partial curve, poor fit]"
3,Cn1nnnc1SCCCNCc1cccc(OCc2ccccc2)c1,"inconclusive [inhibitor, single point]"
4,CCOc1ccc(S(=O)(=O)Nc2cccc(-c3ccc(N4CCC(C)CC4)nn3)c2)cc1,"inconclusive [inhibitor, single point]"
5,OC(c1ccc(Cl)c(F)c1)c1ncc(-c2ccc(Cl)cc2)[nH]1 (stereo not given),"inconclusive [inhibitor, single point]"
6,COc1ccc(NC(=O)C(c2ccc(C(F)(F)F)cc2)n2c(=O)c(-c3ccco3)nc3ccccc32)cc1 (stereo not given),"inconclusive [inhibitor, single point]"
7,Cc1cccc(NC(=S)NNC(=O)c2cccc([N+](=O)[O-])c2)c1,inactive
8,c1ccc(CCc2nn3c(-c4ccncc4)nnc3s2)cc1,"inconclusive [inhibitor, partial curve, poor fit]"
9,Cc1onc(-c2ccccc2Cl)c1C(=O)Nc1sc2c(c1C(N)=O)CCC(C)C2 (stereo not given),"inconclusive [inhibitor, single point]"
10,Cc1cc(SCC(=O)c2ccccc2)nc(SCC(=O)c2ccccc2)n1,"inconclusive [inhibitor, single point]"
11,CCc1ccc(NC(=O)C2=CC(c3cccs3)=NS(=O)(=O)N2C)cc1,"inconclusive [inhibitor, single point]"
12,CC(NC(=O)Nc1ccc([N+](=O)[O-])cc1)C(c1ccccc1)N1CCOCC1 (stereo not given),"inconclusive [inhibitor, single point]"
13,COc1ccc(CN2C(=O)/C(=C/c3ccncc3)SC2=S)cc1,"inconclusive [inhibitor, partial curve, poor fit]"
14,COc1ccc(CN(C)CC(O)COc2ccc(-c3ccccc3)cc2)cc1OC (stereo not given),"inconclusive [inhibitor, single point]"
15,COc1ccc(Cl)cc1NC(=O)N1CCN(C2CCCCC2)CC1,"inconclusive [inhibitor, single point]"
16,O=C(Nc1ccccc1Cl)c1ccccc1CC(O)(c1ccccc1)c1ccccc1,"inconclusive [inhibitor, single point]"
17,O=C(Nc1ccc(C(=O)OC[C@@H]2CCCN3CCCC[C@H]23)cc1)c1cccc(Br)c1,"inconclusive [inhibitor, partial curve, poor fit]"
18,C[C@H](NC(=O)c1ncn(C)c1C(=O)N[C@@H](C)c1ccccc1)c1ccccc1,"inconclusive [inhibitor, partial curve, poor fit]"
19,CCOc1ccc(-n2c(O)c(/C=N/NC(=O)C3COc4ccccc4O3)c3ccccc3c2=O)cc1 (stereo not given),"inconclusive [inhibitor, single point]"
20,COc1ccc(NS(=O)(=O)c2cccc3ccccc23)cc1,"inconclusive [inhibitor, partial curve, poor fit]"
21,COc1ccccc1CNC(=O)COCc1cc(-c2ccc3c(c2)OCO3)on1,inactive
22,O=C(Nc1ccc2c(c1)OCO2)c1ccc(Br)c(S(=O)(=O)N2CCCC2)c1,"inconclusive [inhibitor, single point]"

row,SMILES,Potency
1,CCOc1cccc(Oc2ncccc2C(=O)/C(C#N)=C/N(C)C)c1,inactive
2,CCOc1ccc(S(=O)(=O)Nc2ccc3oc4c(c3c2)CC(C)CC4)cc1 (stereo not given),"inconclusive [inhibitor, single point]"
3,Clc1ccc(-c2cn3cc(Cl)ccc3n2)cc1,"inconclusive [inhibitor, single point]"
4,O=C(OCC#CCSc1nnc(-c2ccc(Br)cc2)o1)c1cccs1,"inconclusive [inhibitor, single point]"
5,Cc1ccc(NC(=O)CN2C(=O)NC3(CCc4ccccc43)C2=O)cc1Cl (stereo not given),"inconclusive [inhibitor, single point]"
6,O=C(Nc1ccc(C(O)(C(F)(F)F)C(F)(F)F)cc1)c1ccc(Cl)c([N+](=O)[O-])c1,"inconclusive [inhibitor, partial curve, poor fit]"
7,O=S(=O)(NCCn1ccc2ccccc21)c1ccccc1,"inconclusive [inhibitor, partial curve]"
8,Cc1cc(C(=O)NC2CCCCCC2)c2ccccc2n1,"inconclusive [inhibitor, partial curve, poor fit]"
9,N#C/C(=C\c1cccnc1)c1ccc([N+](=O)[O-])cc1,inactive
10,COc1cc(/C=N/n2c(C3CCCCC3)n[nH]c2=S)ccc1O,inactive
11,Cc1ccc(-c2noc(CSc3nnc(C)n3-c3ccc(C)c(C)c3)n2)cc1,"inconclusive [inhibitor, partial curve, poor fit]"
12,c1ccc2c(c1)OCC(CNCC1COc3ccccc3O1)O2 (stereo not given),inactive
13,CCCc1nc2c(C)cc(Br)cn2c1Cc1ccccc1C(F)(F)F,"inconclusive [inhibitor, single point]"
14,C/C(=C/c1ccccc1)C(=O)N1CCN(c2ccccc2F)CC1,"inconclusive [inhibitor, single point]"
15,Cc1ccc2c(c1)OC(c1ccc3c(c1)OCCO3)CC2=O (stereo not given),"inconclusive [inhibitor, single point]"
16,CN(C)c1ccc(-c2ccnc3c2CC(C)(C(=O)Nc2ccc(Cl)c(C(F)(F)F)c2)O3)cc1 (stereo not given),"inconclusive [inhibitor, partial curve, poor fit]"
17,CCOc1ccc(C2C(C(=O)c3ccc(C)o3)=C(O)C(=O)N2CCN2CCOCC2)cc1OC (stereo not given),inactive
18,COc1ccc(-c2[nH]ncc2-c2ccc(Cl)cc2)c(O)c1,"inconclusive [inhibitor, single point]"
19,O=C1C(=O)N(C2CCN(C(=O)c3ccccc3F)CC2)CCN1Cc1ccc(F)cc1,inactive
20,Cc1ccc(NC(=O)CSc2nnc(-c3n[nH]c4ccccc34)n2-c2ccccc2)c(C)c1,"inconclusive [inhibitor, full curve]"
21,COc1ccccc1S(=O)(=O)N(C)C[C@H]1OCc2cnnn2CCCC(=O)N([C@H](C)CO)C[C@H]1C,inactive
22,CCOc1ccc(-c2cc(C(=O)Nc3ccc4c(c3)OCCO4)c3ccccc3n2)cc1,"inconclusive [inhibitor, full curve]"

row,SMILES,Potency
1,CCCSc1nc(N)nc(-c2cccs2)c1C#N,inactive
2,CCOc1ccc(N/C=C/C(=O)c2ccccc2)c([N+](=O)[O-])c1,"inconclusive [inhibitor, single point]"
3,O=C(Nc1cccc(F)c1)C1CCCN(S(=O)(=O)c2ccccc2)C1 (stereo not given),"inconclusive [inhibitor, partial curve, poor fit]"
4,CCN(CC)C(=O)c1ccc(/C=C/c2c[nH]c3ccccc23)[n+](C)c1,inactive
5,Cc1ccc(NC(=O)Cn2cccc2C2=NC(c3ccccc3)CO2)cc1C (stereo not given),"inconclusive [inhibitor, full curve, poor fit]"
6,CCCCN(Cc1ccccc1)S(=O)(=O)c1cc2c(cc1Br)CC(C)N2C(C)=O (stereo not given),"inconclusive [inhibitor, single point]"
7,CCOC(=O)c1ccc(-c2ccc(/C=N/NC(=O)CN(c3ccccc3Br)S(C)(=O)=O)o2)cc1,inactive
8,CCN(C(=O)CSc1nc2cc(C(=O)O)ccc2c(=O)n1Cc1ccccc1)c1ccccc1,"inconclusive [inhibitor, single point]"
9,Cc1cc(C)c(C#N)c(N2CCCC(C(N)=O)C2)n1 (stereo not given),inactive
10,Cc1cc(Nc2ccc(Br)cc2F)n2nc(C)nc2n1,inactive
11,CN(C)c1ccc(CNC(=O)C2CCN(Cc3cc4ccccc4n3Cc3ccccc3)CC2)cc1,"inconclusive [inhibitor, partial curve, poor fit]"
12,CCN(CC)S(=O)(=O)c1cc(C)c(C)cc1Br,"inconclusive [inhibitor, partial curve, poor fit]"
13,Cc1ccc(-c2nnc(NC(=O)C3=COCCO3)o2)c(C)c1,inactive
14,CCOC(=O)N1CCN(C(=O)c2ccc3nc4ccc(Cl)cc4c(=O)n3c2)CC1,inactive
15,CC(C)OCc1cc(CN2CCN(c3cccc(C(F)(F)F)c3)CC2)c(O)c2ncccc12,"inconclusive [inhibitor, full curve, poor fit]"
16,CC(=O)Nc1nc(C2COc3ccccc3O2)cs1 (stereo not given),"inconclusive [inhibitor, single point]"
17,Cc1c(Cl)cccc1NC(=O)CSc1nc(=O)n(Cc2ccco2)c2c1CCC2,"inconclusive [inhibitor, partial curve]"
18,CC(C)CC(C(=O)NC1CCCCC1)N(Cc1cccs1)C(=O)c1snc(C(N)=O)c1N (stereo not given),"inconclusive [inhibitor, single point]"
19,COc1ccc(NC(=O)Cc2ccc(C)c(C)c2)cc1S(=O)(=O)N1CCCCC1,"inconclusive [inhibitor, full curve, poor fit]"
20,COc1ccc(/C=N/NC(=O)c2cccnc2)cc1CN1CCOCC1,inactive
21,CCn1c(SCC(=O)N(C)CCC#N)nc2cc(S(=O)(=O)N3CCOCC3)ccc21,inactive
